The source gives no read counts; variants with many changes may rest on few reads.
B1: LINE1-full (parent)
chain: UACGUAGGUGGUUUUCCCCUGAUAGUGCUAAGGGGGCCUGGAAGUUUGGACUGGGCAGAGCUCAACACAGCGUGGCAAAGUGGCUGUGGCUAGACUGCCUCUCUGGAUUCCUCGUCACUCAGCAGGGCAUCUCUGAGAGAAAUGCC

Variants of: B1
Assay: self-cleavage, relative activity (ratio to wild type); higher = more cleavage; in vitro, sequencing; the parent is a self-cleaving ribozyme
For U13A U45C U104A, the self-cleavage was 0.86.
For G72A G89A U130C, the self-cleavage was 0.
Variant U15A A24G A129G has a self-cleavage of 0.63.
Variant C19G U20C U73A has a self-cleavage of 0.89.
Work on U39A A43G A79G U91C U130C yielded a self-cleavage of 0.48.
Variant U13C G21U U108C A129G has a self-cleavage of 2.16.
In the case of A50G U104C A142G, the self-cleavage is reported as 0.8.
Variant A57U G97A U132C U134C G144U has a self-cleavage of 0.02.
For U46A U47A U143C, the self-cleavage was 1.27.
For U26A A64U U134A, the self-cleavage was 0.
A24U A50G U62C U91A C116A showed a self-cleavage of 0.12.
For A94G G122A A140G, the self-cleavage was 0.33.
In the case of U14C A64G U73C A124G A136U, the self-cleavage is reported as 0.
A117G A138G G144A gave a self-cleavage of 1.68.
For A31G U45C U104C, the self-cleavage was 2.51.
U45C A79G A107G showed a self-cleavage of 2.09.
Work on G10A U23A A42G U96A G122U yielded a self-cleavage of 0.05.
A6G A79G U134C showed a self-cleavage of 1.08.
U1C G7U G58A A121U A141G showed a self-cleavage of 0.05.
Work on U12C A43G A79U yielded a self-cleavage of 2.53.
Variant A6U A43G U45C C98U A129G A142G has a self-cleavage of 0.17.
Variant U26C A67U A107G A142G has a self-cleavage of 0.15.
In the case of U9C A42U A129G, the self-cleavage is reported as 1.54.
Variant U15A C19U U39C A67G A77U U119A A138U has a self-cleavage of 0.12.
U13C U100C U108C gave a self-cleavage of 2.3.
In the case of A22G U109A A136G, the self-cleavage is reported as 1.95.
Work on U12G C18A U87C U102A yielded a self-cleavage of 0.28.
Variant U14A U26A A94U A136G has a self-cleavage of 0.37.
For A94U U134G A142G, the self-cleavage was 0.41.
A22G U52C U62C showed a self-cleavage of 0.46.
G58U A65U C118A showed a self-cleavage of 0.08.
U100A U102C U130A gave a self-cleavage of 0.85.
Work on A2G U13C A42G A78G yielded a self-cleavage of 0.57.
U12C U112A A136G A141G showed a self-cleavage of 2.01.
Work on A94G U100C A124U yielded a self-cleavage of 0.41.
Variant U45C U52A A94G has a self-cleavage of 0.
U26C C84U A124G gave a self-cleavage of 0.1.
A2G A94U A107G showed a self-cleavage of 0.66.
With G35A A50G A77G U143C the self-cleavage was 0.43.
In the case of U9C A67G U132C, the self-cleavage is reported as 1.34.
Variant A2U U52C U102C U132A has a self-cleavage of 0.75.
A6G U13G G40A U73C gave a self-cleavage of 1.8.
U62C C84U U85C gave a self-cleavage of 0.
Work on U12C A43G U115A yielded a self-cleavage of 1.34.
For A59G U100C A138G, the self-cleavage was 0.19.
Variant G4U U102C U119C A138G A140G has a self-cleavage of 1.97.
For A69G U87A C116U A136G U143C, the self-cleavage was 0.04.
In the case of U5A A129G A141G, the self-cleavage is reported as 0.
Work on A67G A78G U85C yielded a self-cleavage of 0.16.
With G8C U9A A64U U87A U104A A107C the self-cleavage was 0.12.
In the case of U14C U115C A140G, the self-cleavage is reported as 0.84.
Work on A59G U85A U108C A121G U130A yielded a self-cleavage of 0.77.
Work on C17U C28U U62A A67G G72A yielded a self-cleavage of 0.14.
U26C U47A A78C U85A showed a self-cleavage of 0.09.
In the case of U96C U109A U115A, the self-cleavage is reported as 0.03.
Work on U100C A121G A142G yielded a self-cleavage of 0.
Variant C18U A94G U112C A142G has a self-cleavage of 0.
A78G G122U A124G C146U gave a self-cleavage of 0.81.
With U14C U52A A121U A141G the self-cleavage was 1.15.
G34A A57G A79G A138G gave a self-cleavage of 0.76.
With U45C A69G A140G the self-cleavage was 0.92.
In the case of U15C C63A A64G C66G U102C, the self-cleavage is reported as 0.12.
Variant A43G U62G G74A U100C has a self-cleavage of 0.
Work on U47A A57U U96A A136U yielded a self-cleavage of 0.53.
Variant A42G U108C U143C has a self-cleavage of 2.3.
Work on U29C U85C G137U yielded a self-cleavage of 0.32.
U13A U39C U115C showed a self-cleavage of 0.54.
Work on U73A U85C U109C U112C C120U yielded a self-cleavage of 0.08.
U5C U15C U96A gave a self-cleavage of 0.11.
Work on U23C U87A U134C yielded a self-cleavage of 0.
C3U U91A U132C gave a self-cleavage of 0.55.
With U73C G93A A136U the self-cleavage was 0.04.
Variant A6G C37U A50G A78G U112C has a self-cleavage of 1.17.
With U46A U62A U109C the self-cleavage was 0.06.
A31G U73A A79U A121U A136C showed a self-cleavage of 1.83.
U52C C61U A77U gave a self-cleavage of 0.
In the case of U52A A65G A117G, the self-cleavage is reported as 0.
Variant G53U U119C U132C has a self-cleavage of 1.52.
A31G A69G G89A gave a self-cleavage of 0.04.
Variant U45C A57C A140G has a self-cleavage of 0.11.
U12C A65U U100C U115A gave a self-cleavage of 0.73.
For U102C G125U U143C, the self-cleavage was 1.58.
Variant G34A U52C G58U U100C C116U has a self-cleavage of 0.03.
For U14A U47C G49A, the self-cleavage was 0.3.

Source: the RNAGym collection of RNA variant scans (doi:10.7554/elife.90254)
